Source: PubChem BioAssay AID1508624 (National Center for Advancing Translational Sciences (NCATS), 2021)
Hit rate of the full screen: of about 48,000 compounds, about 120 (0.25%) were called active. Inconclusive results, whose numbers are uncertain, are shown with a selection of clear calls. The call rests on the fitted dose curve; in most records, active means well fitted activation curve with a large enough effect; inconclusive means small, poorly fitted or top-dose-only effect, or another doubt; inactive means no such curve, though single readings can be large or run the other way. Where the call is inconclusive, the potency comes from a doubtful curve fit.
Potency means the concentration at half of the fitted maximal effect; tags describe the fitted curve by direction and shape.

Assay: Primary qHTS for Identification of Small Molecule Activators of Huntingtin-Antisense Promoter Activity; further: nearly all actives have a fitted effect of over 55% in size
Conditions: HEK293 HTT-AS promoter firefly luciferase reporter, 24 h; activity change, positive = activation: at 57.5 µM (top of the series), percent change from vehicle, -100% = no light
From the text: Assay Provider: Russell L. Margolis M.D.
Department Neurology, Johns Hopkins University School of Medicine, Baltimore, MD
Huntington's Disease (HD) is a neurodegenerative disorder caused by a CAG repeat expansion in exon 1 of huntingtin (HTT). While there are currently no disease-modifying treatments for HD, recent efforts have focused on development of nucleotide-based therapeutics to lower HTT expression. As an alternative to siRNA or oligonucleotide methods, we hypothesized that suppression of HTT expression might be accomplished by small molecules that either (1) directly decrease HTT expression by suppressing HTT promoter activity or (2) indirectly decrease HTT expression by increasing the promoter activity of HTT-AS, the gene antisense to HTT that appears to inhibit expression of HTT.
We developed and employed a high throughput screen for modifiers of HTT and HTT-AS promoter activity using luminescent reporter HEK293 cells; of the 52,041 compounds tested, we identified 898 replicable hits. We used a rigorous stepwise approach to assess compound toxicity and the capacity of the compounds to specifically lower huntingtin protein in 5 different cell lines, including HEK293 cells, HD lymphoblastoid cells, mouse primary neurons, HD iPSCs differentiated into cortical-like neurons, and HD hESCs. We found no compounds which were able to lower huntingtin without lowering cell viability in all assays, though the potential efficacy of a few compounds at non-toxic doses could not be excluded.
SEQUENCE No. (1, 2, 3, etc.); […] (e.g., Cells, Incubation, Reagent, etc.); VALUE and DESCRIPTION.
1; Reagent; 4 uL; 2,500 Hek293 luciferase reporter cells per wells
3; Compound; 23 nL; Control inhibitor / compound library
5; Reagent; 2.5 uL; Firefly Luc reagent; Dual-Glo Luciferase Reporter Assay System (Promega)
6; Time; 10 min; room temperature incubation
7; Detection; Luminescence; FLuc
NOTES (numbers refer to sequence above)
1; High-throughput screening, measuring luminescence from a Hek293 luciferase reporter, was performed in 1,536 well white-walled tissue-culture treated plates. 2,500 cells were plated in 4 µL of Opti-MEM per well using a Multidrop Combi Reagent Dispenser (ThermoFisher).
2; Assay plates were cultured for 24 hours.
3; Control inhibitor (PTC124; final concentration of 50 uM) and compound library (at final concentrations of 460 nM - 57.5 uM) were added to the assay plate using the Kalypsis Pintool Robotic System equipped with 1536 pinheads.
4; Cells were then incubated for 24 hours at 37 degrees C prior to luminescence measurements.
5; In all cases, luminescence was measured using the Dual-Glo Luciferase Reporter Assay System (Promega) following the manufacturer's instructions.
6; Room temperature incubation.
7; Luminescence signal was obtained using the PerkinElmer ViewLux plate reader. Results were normalized to vehicle control (0% activity) and zero RLU (-100% activity).
In the case of `COc1ccccc1OCc1nc(-c2cccc(C)c2)no1`, the Potency is reported as active: 10 µM. For `Cc1ccccc1NCc1nc2ccccc2n1CCOc1ccccc1`, the Potency was inconclusive: 3.98 µM [activator, full curve]. In the case of `Nc1c(C(=O)c2ccccc2)sc(Nc2ccc(Cl)c(Cl)c2)c1C(=O)Nc1ccccc1`, the “activity change, positive = activation” value is reported as inactive: -42.8%. For `Cn1c(=O)n(C)c2cc(NS(=O)(=O)c3ccc(C(C)(C)C)cc3)c(NCc3ccccc3)cc21`, the Potency was inconclusive: 10 µM [activator, partial curve]. In the case of `O=C(NCCc1ccccc1)C1COc2ccccc2C1` (stereo not drawn), the Potency is reported as inconclusive: 15.8 µM [activator, partial curve, poor fit]. For `Oc1ccc(C2=Cc3ccc(O)cc3OC2)cc1`, the “activity change, positive = activation” value was inactive: 9.16%. In the case of `Fc1ccccc1Nc1ncnc2c1nc1n2CCCCC1`, the Potency is reported as inconclusive: 1.41 µM [activator, full curve, poor fit]. In the case of `CCCCc1nc2cc(C=CC(=O)NO)ccc2n1CCN(CC)CC`, the Potency is reported as inconclusive: 12.2 µM [activator, partial curve]. For `Nc1c(-c2nc(-c3ccccc3Cl)no2)nnn1-c1ccccc1F`, the Potency was inconclusive: 1 µM [activator, full curve, poor fit]. In the case of `CC(C)c1nn2c(=O)cc(COC(=O)c3ccccc3Cl)nc2s1`, the Potency is reported as inconclusive: 1.78 µM [activator, full curve, poor fit]. With `CCC(C)OC(=O)/C(C#N)=C\c1ccc(-c2ccccc2Cl)o1` (stereo not drawn) the Potency was inconclusive: 14.1 µM [activator, partial curve]. In the case of `Cc1ccc(-c2nc3nc(C)cc(Nc4ccccc4O)n3n2)cc1`, the “activity change, positive = activation” value is reported as inactive: 9.68%. For `COc1ccc(OC)c(NS(=O)(=O)c2ccc3[nH]c4c(c3c2)CCCCC4)c1`, the “activity change, positive = activation” value was inactive: -31.6%. With `O=C(NC1CC(=O)N(c2ccc(Cl)cc2)C1)c1ccc2c(c1)OCO2` (stereo not drawn) the “activity change, positive = activation” value was inactive: -20.9%. With `COc1ccc(C(=O)Nc2noc3ccccc23)cc1` the Potency was inconclusive: 0.355 µM [activator, full curve, poor fit]. For `CCOC(=O)c1ccc(C#Cc2ccc3c(c2)C(C)(C)CCS3)nc1`, the Potency was inconclusive: 27.3 µM [activator, single point]. With `CCC(C)(C)c1ccc(CC(C)CN2C[C@@H](C)O[C@@H](C)C2)cc1` (stereo partly drawn) the Potency was “inactive”. With `O=C(CSc1nnc2ccc3ccccc3n12)c1ccc(F)cc1` the Potency was inconclusive: 8.91 µM [activator, partial curve]. For `Cc1ccc(C(=O)Nc2onc3c2CCCC3)cc1`, the Potency was inconclusive: 0.398 µM [activator, full curve, poor fit]. With `CC(=O)Nc1ccc(NS(=O)(=O)c2c(C)nc3sccn3c2=O)cc1` the “activity change, positive = activation” value was inactive: -6.31%. With `Cc1ccc(-n2ncc3c(Nc4ccccc4C)ncnc32)cc1` the Potency was inconclusive: 1.41 µM [activator, partial curve, poor fit]. With `COc1ccc(-c2cn3nc(N4CCCC(C(=O)NCc5ccccc5OC)C4)sc3n2)cc1` (stereo not drawn) the Potency was inconclusive: 2.24 µM [activator, full curve, poor fit]. With `Cc1ccc(-c2nnc3ccccc3c2C(=O)Nc2ccccc2F)cc1` the Potency was inconclusive: 25.1 µM [activator, partial curve, poor fit]. For `Clc1cccc(-n2ncc3c(NCCCn4ccnc4)ncnc32)c1`, the Potency was active: 14.1 µM. For `COCCNc1oc(/C=C/c2ccc(F)cc2)nc1C#N`, the Potency was inconclusive: 10 µM [activator, partial curve, poor fit]. With `COc1ccc(-c2onc(C)c2C)cc1S(=O)(=O)NCC1CCN(Cc2cc(C)ccc2C)CC1` the activity change, positive = activation was inconclusive: -74.9% [activator]. For `COc1cccc(-c2noc(COc3ccccc3Cl)n2)c1`, the Potency was inconclusive: 35.5 µM [activator, single point]. For `COc1cc(OC)c(NC(=O)Nc2cccc(OCc3cc(=O)n4ccccc4n3)c2)cc1Cl`, the “activity change, positive = activation” value was inactive: 16.3%. With `CCOc1ccc(CCNC(=O)c2ccc3c(c2)N(Cc2ccc(C)cc2)CCS3)cc1` the “activity change, positive = activation” value was inactive: -15%. With `O=C(CCN1CCN(C(=O)OCc2cc(Cl)cc(Cl)c2)CC1)c1ccc2[nH]c(=O)oc2c1` the Potency was inconclusive: 21.7 µM [activator, partial curve]. For `COc1cccc(NC(=O)c2ccc3c(c2)CCN3S(C)(=O)=O)c1`, the Potency was inconclusive: 15.8 µM [activator, partial curve, poor fit]. With `CCc1ccc(-c2nn(CC(=O)NC3CCCC3)c3c2cnc2ccc(F)cc23)cc1` the Potency was inconclusive: 25.1 µM [activator, partial curve, poor fit]. For `COc1ccccc1C(=O)Nc1nc(-c2ccccc2)ns1`, the Potency was inconclusive: 4.47 µM [activator, partial curve]. With `COc1cc(Nc2nc3ccccc3c3nnc(C)n23)cc(OC)c1` the activity change, positive = activation was inconclusive: 8.68% [activator]. In the case of `c1ccc2c(-c3cnn4cc(-c5ccc(N6CCNCC6)cc5)cnc34)ccnc2c1`, the Potency is reported as inconclusive: 0.0054 µM [activator, full curve]. With `COc1ccc(S(=O)(=O)Nc2cc3c(cc2NCc2ccccc2)n(C)c(=O)n3C)cc1OC` the Potency was inconclusive: 14.1 µM [activator, partial curve]. In the case of `Cc1ccc(-c2cc(C(=O)NCCc3ccccc3)c3c(-c4ccc(C)cc4)[nH]nc3n2)cc1`, the Potency is reported as inconclusive: 10 µM [activator, partial curve]. With `CCCn1c(NCc2ccccc2C)nc2ccccc21` the Potency was inconclusive: 14.1 µM [activator, partial curve, poor fit]. In the case of `COc1ccc(C=Cc2cc(OC)c(OC)c(OC)c2)cc1O`, the “activity change, positive = activation” value is reported as inactive: -35.8%. With `COc1cccc(-c2cc(C(=O)Nc3ccc(C)cc3)[nH]n2)c1` the Potency was inconclusive: 12.6 µM [activator, partial curve]. In the case of `COc1ccc(CNC(=O)c2ccc3c(c2)nc2n3CCCCC2)c(OC)c1`, the Potency is reported as inconclusive: 15.8 µM [activator, single point]. With `COc1cc2ccccc2cc1C(=O)Nc1ccc(Cl)c(-c2nc3ccccc3o2)c1` the Potency was inconclusive: 7.08 µM [activator, single point]. For `Cc1cccc(CSc2cn(CC(=O)N3CCCC3)c3ccccc23)c1`, the Potency was inconclusive: 10 µM [activator, partial curve]. With `CCC(Oc1ccccc1)C(=O)Nc1ccc2oc(-c3ccc(OC)cc3)nc2c1` (stereo not drawn) the Potency was inconclusive: 1.12 µM [activator, full curve, poor fit]. For `O=C(Nc1cccc(C(=O)N2CCN(c3ccc(Cl)cc3)CC2)c1)c1nsc2ccccc12`, the Potency was inconclusive: 0.178 µM [activator, full curve, poor fit]. With `CCOC(=O)c1cc(C)n(CC2CCC(C(=O)Nc3ccc(Cl)cc3)CC2)c1C` (stereo not drawn) the “activity change, positive = activation” value was inactive: -92.5%. In the case of `COc1cccc(C(=O)Nc2cc(-c3ccccc3)no2)c1`, the Potency is reported as inconclusive: 10 µM [activator, partial curve, poor fit]. In the case of `Cc1ccc(C)c(N2CCN(CCCNC(=O)Nc3cc(Cl)ccc3C)CC2)c1`, the “activity change, positive = activation” value is reported as inactive: -26.8%. With `COc1cc(Br)c(/C=C(\C#N)c2nc3ccccc3[nH]2)cc1OC` the Potency was inconclusive: 12.6 µM [activator, partial curve, poor fit]. For `Cc1ccc(N2C(=O)CSC23C(=O)N(CC(=O)NC2CCCCC2)c2ccccc23)cc1` (stereo not drawn), the activity change, positive = activation was inconclusive: 20.1% [activator]. With `CCC(=O)N1CCc2cc(Br)cc(S(=O)(=O)N3CCCC(C(=O)Nc4ccc(OC)c(Cl)c4)C3)c21` (stereo not drawn) the “activity change, positive = activation” value was inactive: -9.1%. For `Cc1ccn2c(Nc3ccc4c(c3)OCCO4)c(-c3ccc(Cl)s3)nc2c1`, the Potency was inconclusive: 8.91 µM [activator, partial curve, poor fit]. With `COc1ccc(CC2SC(=O)NC2=O)cc1C(=O)NCc1ccc(C(F)(F)F)cc1` (stereo not drawn) the “activity change, positive = activation” value was inactive: -21.7%. For `O=c1oc2ccc(Br)cc2cc1-c1csc(-c2ccc(Cl)cc2)n1`, the activity change, positive = activation was inconclusive: -7.47% [activator]. In the case of `CC1CCN(c2ccc(-c3nc(C(C)C)no3)cc2[N+](=O)[O-])CC1`, the Potency is reported as inconclusive: 1.58 µM [activator, full curve, poor fit]. In the case of `CC1Cc2ccccc2N1S(=O)(=O)c1nnc(NC(=O)c2ccccc2)s1` (stereo not drawn), the activity change, positive = activation is reported as inconclusive: -11.8% [activator]. In the case of `CC(C)Oc1ccc(-c2nc3c(C#N)c[nH]n3c2NC2CCCCC2)cc1`, the Potency is reported as inconclusive: 14.1 µM [activator, partial curve, poor fit]. With `CCCCCCCC(=O)[O-].CCCCCCCC(=O)[O-].[Zn+2]` the “activity change, positive = activation” value was inactive: -1.18%. For `O=C(NCC(c1ccco1)S(=O)(=O)c1cccs1)c1ccccc1F` (stereo not drawn), the Potency was inconclusive: 25.1 µM [activator, single point]. In the case of `COc1cccc(CNc2cc(C)nc3nc(-c4ccc(C)cc4)nn23)c1`, the Potency is reported as inconclusive: 2.24 µM [activator, full curve]. For `CC1CCn2c(nc3cc(C(=O)NCc4ccc(OC(C)C)cc4)ccc32)C1` (stereo not drawn), the Potency was inconclusive: 8.91 µM [activator, full curve]. In the case of `CCC(C(=O)NC1CCC(C)CC1)n1nc(C)c2sc3ccccc3c2c1=O` (stereo not drawn), the Potency is reported as inconclusive: 14.1 µM [activator, partial curve]. For `Cc1ccc(Cl)cc1N1CCN(c2ncnc3c2nc2n3CCCCC2)CC1`, the “activity change, positive = activation” value was inactive: -31.6%. In the case of `O=C(Nc1sc2c(c1C(=O)Nc1cccc(Cl)c1)CCCC2)c1cccs1`, the “activity change, positive = activation” value is reported as inactive: -31.3%. With `CCn1nnc2cc(C(=O)Nc3ccc(C)c(Cl)c3)ccc21` the Potency was inconclusive: 2 µM [activator, full curve, poor fit]. With `Cc1ccc(NC(=O)N2CCN(c3ccc(Cl)c(Cl)c3)CC2)cc1` the “activity change, positive = activation” value was inactive: -31%. For `COCC(=O)Nc1cccc(-c2nc3cccnc3s2)c1`, the Potency was inconclusive: 5.62 µM [activator, partial curve]. For `Cc1ccc(NC(=O)Nc2ccccc2OCc2cc(=O)n3ccccc3n2)c(Cl)c1`, the “activity change, positive = activation” value was inactive: 16.2%.
